The text below walks through data of article PMC4300205, “Human Cerberus Prevents Nodal-Receptor Binding, Inhibits Nodal Signaling, and Suppresses Nodal-Mediated Phenotypes” (PLoS ONE, 2015).

A word on the Kd: it is the free concentration of one partner at which half of the binding sites on the other are occupied at equilibrium, for simple one-to-one binding. For orientation: koff means the rate constant with which the complex falls apart. As a reminder, the kon is the second-order rate constant of association.

For one test, the target named is T1, recombinant human Nodal (human, UniProt Q96S42 238-347).
T1 construct: Nodal, human, recombinant (RnD Systems); source: bought: RnD Systems
T1 sequence (looked up): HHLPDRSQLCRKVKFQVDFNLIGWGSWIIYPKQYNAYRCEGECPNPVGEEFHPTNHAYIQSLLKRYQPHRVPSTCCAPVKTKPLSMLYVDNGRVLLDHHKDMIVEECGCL
Briefly: SPR; Biacore 2000; 200-300 RU of Fc fusion captured by anti-human IgG (Fc) antibody on a CM5 chip; concentration series of ligand injected at 50 ul/min; 25 C; HBS-EPS (0.01 M HEPES, 0.5 M NaCl, 3 mM EDTA, 0.005% Tween 20, pH 7.4); 1:1 Langmuir model with mass transport; Kd = kd/ka. The following applies: both partners purified.

The next test addresses T2, Recombinant Activin A (human, UniProt P08476 311-426).
T2 construct: Activin A (inhibin beta A chain), recombinant; source: bought: R&D Biosystems or Life Technologies; also produced in-house
T2 sequence (looked up): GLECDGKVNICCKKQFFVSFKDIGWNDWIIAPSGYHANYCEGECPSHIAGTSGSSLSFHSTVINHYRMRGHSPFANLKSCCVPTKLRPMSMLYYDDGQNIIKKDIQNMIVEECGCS
The test is described as above. The following applies: both partners purified.

B1: human ACTRIIA-hIgg-Fc (Fc fusion)
chain: not shown
notes: signal peptide in the construct; extracellular domain of human ActRIIA ([…]), joined to human IgG1 Fc by a 22 amino acid linker with a TEV site, a glycine/serine rich region and a FLAG-tag; Synthetic gene from GeneArt; also called ACTRIIA-Fc; source: CHO cells, purified from conditioned medium (Protein A, SEC)
With B1, in the test with recombinant human Nodal, the dissociation constant (Kd) is 100 nM, the off-rate (koff) worked out at 0.002 s⁻¹ and the association rate constant (kon) came out at 20000 M⁻¹ s⁻¹. In the test with Recombinant Activin A, the Kd turned out to be 0.023 nM, the koff turned out to be 2.5e-05 s⁻¹ and the kon was 1.1e+06 M⁻¹ s⁻¹.
